# Measurements as given in the supplement of paper PMC4604168 (melanoma cell lines).
# This is one part of the list. Single values are uncertain, as repeats are few or missing.
# What was measured:
# Experiment in all cases: cell count relative to DMSO control; melanoma cells; higher = more viable cells
# Conditions in all cases: library dose: standard library concentration; 72 h; first compound 2 µM
# G361 = tested on: G361
# IPC-298 = tested on: IPC-298
# IST-MEL1 = tested on: IST-MEL1
# LB2518-MEL = tested on: LB2518-MEL
# LOXIMVI = tested on: LOXIMVI
# MEL-HO = tested on: MEL-HO
# MZ2-MEL = tested on: MZ2-MEL
# MeWo = tested on: MeWo
# RPMI7951 = tested on: RPMI7951
# RVH-421 = tested on: RVH-421
# SkMel28 = tested on: SkMel28
# SkMel2 = tested on: SkMel2
# SkMel30 = tested on: SkMel30
# SkMel5 = tested on: SkMel5
# UACC257 = tested on: UACC257
# UACC62 = tested on: UACC62
# WM115 = tested on: WM115
# WM1716 = tested on: WM1716
# WM1745 = tested on: WM1745
# WM3526 = tested on: WM3526
# 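Note: cells treated in 1,536-well plates, then fixed and DAPI-stained, with nuclei counted from automated high-throughput microscope images.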
Structure (SMILES),cell count (G361) [%],cell count (IPC-298) [%],cell count (IST-MEL1) [%],cell count (LB2518-MEL) [%],cell count (LOXIMVI) [%],cell count (MEL-HO) [%],cell count (MZ2-MEL) [%],cell count (MeWo) [%],cell count (RPMI7951) [%],cell count (RVH-421) [%],cell count (SkMel28) [%],cell count (SkMel2) [%],cell count (SkMel30) [%],cell count (SkMel5) [%],cell count (UACC257) [%],cell count (UACC62) [%],cell count (WM115) [%],cell count (WM1716) [%],cell count (WM1745) [%],cell count (WM3526) [%]
C[C@@H](N)c1ccc(C(=O)Nc2ccnc3[nH]ccc23)cc1 + Nc1ncn([C@H]2C[C@H](O)[C@@H](CO)O2)c(=O)n1 [decitabine] (partner dose 0.5 µM),74.2,61.9,55.5,76.3,85.7,56,43.5,57.2,51.9,57.4,71.6,80.6,77.9,32.4,84.6,48.1,63,51.2,37.6,95.5
CCCCCCCCCCCCCCCCCCOP(=O)([O-])OC1CC[N+](C)(C)CC1 [Perifosine] + NC1(c2ccc(-c3nc4ccn5c(=O)[nH]nc5c4cc3-c3ccccc3)cc2)CCC1 [MK2206] (partner dose 2 µM),90.5,94.8,96.9,79.6,63.2,74.8,84,87.6,45.7,19.9,61.4,76.2,101,81.1,89.5,75.6,65.4,79.7,74.7,90.2
Cn1sc(=O)n(Cc2ccccc2)c1=O + COc1ccc(C2=N[C@@H](c3ccc(Cl)cc3)[C@@H](c3ccc(Cl)cc3)N2C(=O)N2CCNC(=O)C2)c(OC(C)C)c1 [Nutlin-3] (partner dose 0.5 µM),75.3,103,104,70.4,53.3,77.6,101,144,102,86.9,61.3,85.2,91.9,86.7,90,67,99.5,91.2,82.1,102
CCCCCCCCCCCCCCCCCCOP(=O)([O-])OC1CC[N+](C)(C)CC1 [Perifosine] + CCN(CC)CCNC(=O)c1c(C)[nH]c(/C=C2\C(=O)Nc3ccc(F)cc32)c1C [sunitinib] (partner dose 2 µM),91.1,105,92.5,69.2,109,111,129,78.9,10.3,81.4,58,73.1,74.8,62,113,71.5,86.8,123,31.8,75.7
Cn1sc(=O)n(Cc2ccccc2)c1=O + OCc1c[nH]c2ccccc12 [Indole-3-carbinol] (partner dose 4 µM),105,100,111,91.7,89.7,107,101,89.5,119,100,117,104,95.6,94.2,127,94.7,97.5,113,114,97.9
Cn1sc(=O)n(Cc2ccccc2)c1=O + Clc1ccc(Nc2nnc(Cc3ccncc3)c3ccccc23)cc1 [vatalanib] (partner dose 10 µM),81.9,81.2,78.5,103,57.5,64,84,80.9,66.4,95,48.3,82.2,79.5,49.6,69.8,72.8,75.1,89.1,91.4,65.8
CCCCCCCCCCCCCCCCCCOP(=O)([O-])OC1CC[N+](C)(C)CC1 [Perifosine] + Nc1ncn([C@H]2C[C@H](O)[C@@H](CO)O2)c(=O)n1 [decitabine] (partner dose 0.5 µM),88.4,59.1,69.8,68.1,80.6,76.1,78.3,71.1,36.1,82.7,63.1,103,73,76.7,110,59.3,98.6,72.2,80.6,86.8
CCCCCCCCCCCCCCCCCCOP(=O)([O-])OC1CC[N+](C)(C)CC1 [Perifosine] + CN(NC(=O)CC(=O)NN(C)C(=S)c1ccccc1)C(=S)c1ccccc1 [STA4783] (partner dose 0.03 µM),35.6,86.4,15.7,34.1,73.6,96.5,117,26.9,23.3,78.5,43.6,61.1,80.5,69.3,124,43.3,20.9,76.4,21.4,98.4
